# Laboratory results as given in PubChem BioAssay AID1362 (SRMLSC, 2008).
# The list shows a part of the results. Shown are side measurements of this screen, not its main read-out; they come without a call. The list favours compounds with an active or inconclusive main result.
# Assay: growth inhibition of WT strain, primary screen, mitochondrial fusion inhibitor project, WT and mutant strains, chemical genetic (AID 1362); also: tested in S. cerevisiae
# Conditions: mitochondrial fusion phenotypic screen, at 10 µM
row,Compound,inhibition
1,O=C(c1ccco1)N1CCN(c2c(-c3ccccc3)c3cc(Cl)ccc3[nH]c2=O)CC1,19.3%
2,Fc1ccccc1Sc1ccccc1CNC1=NCCN1,60.8%
3,COCCNC(=O)CC(NS(=O)(=O)c1ccc(C)cc1)c1ccco1 (centres undefined),18.4%
4,FC(F)(F)c1nc(-c2cccs2)ncc1-c1nnnn1-c1ccc(Cl)cc1,51.3%
5,Fc1ccc(CNC(=S)Nc2cccc(Cl)c2)cc1,14.7%
6,COc1ccc(C2CC(=O)c3cnc(Nc4cc(C)cc(C)c4)nc3C2)cc1 (centres undefined),-8.64%
7,O=C(c1cc(-c2ccccc2)nc2ccccc12)N1CCCc2ccccc21,-15.7%
8,CC(C)(C)c1ccc(-c2nc(-c3ccncc3)no2)cc1,21.6%
9,CC1Cc2ccccc2N1C(=O)Cn1c(=O)cc(O)c2ccccc21 (centres undefined),-51.7%
10,C=C(C)C1CC=C(C)/C(=N/NC(=O)COc2ccccc2Cl)C1 (centres undefined),13.5%
11,CC(C)(C)c1ccccc1OCCOCCN1CCCCCC1,62.7%
12,CN=c1scc(-c2cccs2)n1/N=C/c1ccccc1O,35.1%
13,COc1cc(/C=N/N=C(/C(=O)c2ccccc2)c2ccccc2)cc(OC)c1O,8.74%
14,O=C(Nc1ncccc1O)c1cccc(S(=O)(=O)N2CCc3ccccc32)c1,63.9%
15,CC1(C)CC(=O)C2=C(C1)N(c1ccc(F)cc1)C(=O)C2(O)C(F)(F)F (centres undefined),-7.4%
16,C/C(CCc1ccc2c(c1)OCO2)=N\N=C1\NC(=O)CC(C(=O)Nc2ccc(Cl)cc2)S1 (centres undefined),31.9%
17,CCOC(=O)c1sc(NC(=O)/C=C/c2cnn(CC)c2C)c(C(=O)OCC)c1C,-12.6%
18,Cc1nn(C(C)C(=O)NCC2CCCO2)c(=O)c2cc3occc3n12 (centres undefined),-15%
19,Cc1nn(CC(O)CN2c3ccccc3Sc3ccccc32)c(C)c1Br (centres undefined),53.8%
20,CC1(C(=O)OCC(=O)Nc2ccc3ccccc3c2)CC1(Cl)Cl (centres undefined),58.4%
21,CCn1c2ccccc2c2cc(CNCc3ccc(OC)cc3OC)ccc21,79.7%
22,Cc1ccc(Cn2ncc3c(N4CCN(c5ccccc5C)CC4)ncnc32)cc1,13.8%

row,Compound,inhibition
1,N#Cc1nc(-c2ccco2)oc1NCc1ccc(F)cc1,0.69%
2,S=c1[nH]nc(-c2ccc3ccccc3n2)n1-c1cc(Cl)cc(Cl)c1,9.33%
3,Cc1cc(C(C)(C)C)oc1C(=O)N(CC(=O)NC1CCCC1)Cc1ccccc1Cl,27.8%
4,NNc1nc2ccc(F)cc2s1,60.7%
5,Cc1ccc(Cl)cc1NC(=S)NCCCSC1CCCCC1,64%
6,Cn1c(CCN2CCN(c3ccccc3)CC2)nc2cc(NC(=O)c3ccco3)ccc21,-6.08%
7,CCN(CCCNC(=O)CCc1nc(-c2ccc(C)cc2)no1)c1cccc(C)c1,16.4%
8,O=C(c1c(F)c(F)c(F)c(F)c1F)N(Cc1ccccc1)Cc1ccccc1,16%
9,CN1/C(=C\C(=O)COC(=O)c2ccc([N+](=O)[O-])o2)C(C)(C)c2ccccc21,91.2%
10,CC(C)(C)C1CCC(=NOC(=O)c2ccc(F)cc2)CC1 (centres undefined),95.6%
11,CC(/C=N/n1c(-c2ccc(Cl)cc2)n[nH]c1=S)=C\c1ccco1,30.6%
12,CCOC(=O)c1cc2c(ccn2C)n1Cc1cc(C)ccc1C,6.66%
13,CN(C)CCNC=C(C(=O)Nc1ccc(Cl)cc1Cl)C(=O)Nc1ccc(Cl)cc1Cl,95.8%
14,Cc1c(OCc2ccccc2)cccc1OCc1ccccc1,49.9%
15,C/C(=N\Nc1cccc(Cl)c1)c1ccc(-n2ccnc2)cc1,38.8%
16,C=CCc1ccc(O)c(-c2cc(CC=C)ccc2O)c1,54.4%
17,CCCCCNCC(=O)Nc1cccc(C(=O)Nc2cccc(C(F)(F)F)c2)c1,47.4%
18,COc1ccc(O[C@H]2C=C[C@@H](c3ccccc3)O[C@@H]2CO/N=C(\C)CCN2CCCCc3nc(C)c(C)cc32)cc1,3.15%
19,Clc1ccc(-c2ccc(/C=N/Nc3cc(N4CCOCC4)nc(N4CCOCC4)n3)o2)cc1,21.4%
20,CN1CCN(S(=O)(=O)c2ccc(N3CCN(C(c4ccccc4)c4ccccc4)CC3)nc2)CC1,41.1%
21,CC1=NN(c2ccccc2)C(=O)/C1=C/c1cc2cc(C)ccc2nc1N1CCCCC1,40.4%
22,Cc1ccc(CSc2nc3c(c(N(C)C)n2)CCCC3)cc1,76.6%

row,Compound,inhibition
1,O=C1Nc2ccc(F)cc2C12Nc1ccccc1-c1nnc(SCc3ccccc3Cl)nc1O2 (centres undefined),45.2%
2,CN1C(=O)/C(=C/c2cc(N=Nc3ccccc3)ccc2O)SC1=S,76.4%
3,NS(=O)(=O)c1ccc(N2N=C(c3ccccc3)CC2c2ccc(F)cc2)cc1 (centres undefined),15.7%
4,O=C(Oc1cccc(C(=S)N2CCCCC2)c1)c1ccccc1,24.3%
5,CCc1n[nH]c(=S)n1/N=C/c1ccc(N(C)c2ccccc2)cc1,45.1%
6,O=[N+]([O-])c1ccc(NC(=S)NCCc2ccc(F)cc2)cc1,79.9%
7,CCn1ccnc1CN(C)Cc1cn(-c2cc(C)ccc2C)nc1-c1ccccc1,27.4%
8,O=[N+]([O-])c1cccc(C2NCC(c3ccccc3Cl)c3c2[nH]c2ccccc32)c1 (centres undefined),35.9%
9,CCCCCCCC[n+]1cccc2c3ccccc3ccc21,66.8%
10,Cc1ccccc1NC1=C(Cl)C(=O)OC1OC(=O)c1ccccc1C (centres undefined),39.4%
11,Cc1ccccc1NC(=S)NCCSc1ccc(Cl)cc1,70.9%
12,CC(C)C1COC(c2cccn2Cc2ccccc2Cl)=N1 (centres undefined),26.9%
13,O=c1cc(N2CCCCC2)c(-c2ccccc2)nn1Cc1ccc(F)cc1,6.49%
14,Cc1cc(C)n(CC(O)Cn2c3ccc(Cl)cc3c3cc(Cl)ccc32)c(=O)n1 (centres undefined),20.9%
15,CCN(CC)c1ccc(C(=S)NCc2ccccc2)cc1,42.7%
16,Cc1ccc2c(c1)c1c(n2CC(O)Cn2nc(C)c(Br)c2C)CCCC1 (centres undefined),21.7%
17,Cc1ccccc1C(=O)c1cccn1CC(=O)NCCN1CCN(c2cccc(C)c2C)CC1,49.2%
18,COc1ccccc1C(=O)n1nc(-c2ccccc2)nc1NCc1ccco1,76.3%
19,c1ccc(-c2nc(NCc3cccnc3)c3oc4ccccc4c3n2)cc1,67.4%
20,C=CC[n+]1c(-c2ccc(Cl)cc2Cl)csc1Nc1ccc(NC(C)=O)cc1,83.3%
21,Cc1ccc(C(c2nnnn2CC2CCCO2)N2CCN(c3cccc(C)c3C)CC2)cc1 (centres undefined),26.3%
22,COc1cccc(C(=O)O/N=C(\N)Cc2ccc(Cl)cc2)c1,50%

row,Compound,inhibition
1,Cc1ccc(S(=O)(=O)N2CCN(c3ccnc4cc(Cl)ccc34)CC2)cc1,29.4%
2,O=C1CSC(c2ccc(F)cc2)N1c1nc2ccccc2s1 (centres undefined),31.1%
3,CO/N=C(\c1nonc1N)N1CCN(c2ccc(Cl)cc2[N+](=O)[O-])CC1,34.6%
4,CC(C)(C)c1ccc(-c2n[nH]c(=S)n2C2CCCC2)cc1,50.4%
5,C/C(=N\NC(=S)NCc1ccccc1)c1cccc(Br)c1,66%
6,c1ccc(-c2noc(-c3ccccc3-c3ccccc3)n2)cc1,53.4%
7,CCOC(=O)c1ccc(NC(=S)NCCc2ccccc2F)cc1,37.6%
8,O=C(NCc1ccco1)c1cc2sccc2n1Cc1ccccc1,39.1%
9,Cc1cc(NC(=S)N(Cc2cccc(Br)c2)CC2CCC(C(=O)O)CC2)ccc1Cl (centres undefined),-0.1%
10,CCOC(=O)c1c(C)[nH]c(C2=NNC(=Nc3ccccc3)SC2)c1C,17.1%
11,Cc1ccc(NC(=O)CCC(=O)OCC(=O)c2ccc(Oc3ccc([N+](=O)[O-])cc3)cc2)cc1C,8.88%
12,COc1ccc(C(CCNCc2ccccc2)c2ccc(F)cc2)cc1 (centres undefined),32.1%
13,CSc1nc(N2CCN(CCO)CC2)c2sc3nc(-c4ccco4)c4c(c3c2n1)CCC4,83.6%
14,O=C1CC(N(CCc2ccccc2)C(=S)Nc2ccccc2)C(=O)N1c1ccccc1 (centres undefined),38.4%
15,CCOc1ccc(-c2ccc(SC)nn2)cc1,65.5%
16,O=C(Nc1ccc(Cl)cc1)NC1CCCCC1Cc1ccco1 (centres undefined),74.1%
17,CCn1c(CSc2nc3ccccc3s2)nc2ccccc21,51.1%
18,Cc1cccc(-c2n[nH]c(=S)n2Cc2ccccc2)c1,32.4%
19,CC(C)C(NC(=O)c1ccc(C(C)(C)C)cc1)C(=O)NC1=NCCS1 (centres undefined),20.8%
20,COC(=O)Cc1ccc(N(Cc2ccccc2F)S(=O)(=O)c2ccc(Cl)cc2)cc1,31.2%
21,C=C(C)C1Cc2c(C)nn(-c3ccccn3)c2C1 (centres undefined),64.2%
22,Cc1ccc(C(=O)C(c2ccccc2)N2Cc3ccccc3C2=N)cc1 (centres undefined),59.2%

row,Compound,inhibition
1,O=C(Oc1cccc(Nc2ncnc3ccccc23)c1)c1ccccc1Cl,41.8%
2,COc1ccc(C(=O)C(CN2CCOCC2)c2ccccc2)cc1F (centres undefined),60.3%
3,O=C(Cn1nc(-c2ccccc2Cl)ccc1=O)Nc1ccccc1-c1ccccc1,18.3%
4,Cc1[nH]n(C(C)(C)C)c(=O)c1Sc1ccc(Cl)cc1,52.6%
5,O=c1oc(Nc2cccc(F)c2)nc2ccccc12,0.46%
6,CC(=O)Nc1cccc(Oc2ncnc3scc(-c4ccc(C(C)C)cc4)c23)c1,-10.2%
7,CCOc1ccc2c(c1)C(C)=CC(C)(C)N2S(=O)(=O)c1ccc(C)cc1,20.2%
8,CCn1cc(C(=O)NCCc2ccccc2)c(=O)c2cc(F)c(N3CCN(C)CC3)cc21,-3.19%
9,CN(c1ccccc1)C1CCCCC1NS(=O)(=O)c1ccc(Cl)cc1 (centres undefined),35.2%
10,O=C(Nc1ccc(N2CCCCC2)c(Cl)c1)c1ccc2c(c1)OCCO2,36.6%
11,S=C1NCCc2ccc(Cl)cc2C1c1ccccc1Cl (centres undefined),54.8%
12,CC1CC(C)CN(C2CCN(Cc3cccnc3)CC2)C1 (centres undefined),-5.1%
13,Nc1ccc2nc(CN3CCOCC3)[nH]c2c1,-3.53%
14,c1ccc(-c2ccc(-c3nc(-c4ccccn4)no3)cc2)cc1,75.2%
15,CC1CCCN(Cc2nc3c(c(=O)n(C)c(=O)n3C)n2CC(N)=O)C1 (centres undefined),97.5%
16,CCCCCCCCNC(C)C(O)c1ccc(SC(C)C)cc1 (centres undefined),97.8%
17,O=c1[nH][nH]c(-c2ccccc2)c1C=Nc1ccccc1,14.5%
18,CN(C(=O)c1cccc(COc2ccc(Cl)cc2Cl)c1)c1ccccc1,45.6%
19,CCN(CCNCC(O)COCc1ccc(Cl)cc1)c1cccc(C)c1 (centres undefined),32.9%
20,CC(c1cccs1)N(Cc1ccco1)C(=S)Nc1ccccc1Cl (centres undefined),23.5%
21,COc1cc(OC)nc(Oc2ccccc2C(=O)Oc2ccccc2Cl)n1,61.4%
